According to PubChem BioAssay AID651820 (National Center for Advancing Translational Sciences (NCATS), 2012):
Among all 340,000 compounds or so, about 12,000 (3.5%) were called active. This list was built around the results that the source calls inconclusive (neither active nor inactive); the mix of calls is not that of the screen. The call rests on the fitted dose curve; in most records, active means well fitted inhibition curve with a large enough effect; inconclusive means small, poorly fitted or top-dose-only effect, or another doubt; inactive means no such curve, though single readings can be large or run the other way. No potency is given beside an inconclusive call; the fits are too rough.

Assay: qHTS Assay for Inhibitors of Hepatitis C Virus (HCV)
Conditions: Huh7.5.1 HCVcc-Cre (HCVcc is cell-culture hepatitis C virus) infection, luciferase reporter, 44 h; activity change, negative = inhibition: at 41.8 µM (top of the series)
How it was run: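 Whole-lifecycle infectious HCVcc-Cre system; cells 1,000/well, compound then virus (~0.5 moi) added 4 h after plating, 44 h culture. Luciferase read 15 sec following 15 min substrate incubation, room temp.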
On the % scale 0 is the no-effect control and ±100 the full control effect; potency means the concentration at half of the fitted maximal effect; tags describe the fitted curve by direction and shape.

| Compound | Potency | activity change, negative = inhibition |
| --- | --- | --- |
| CC(Cc1ccccc1)NC(=O)CCCCC(=O)NC(C)Cc1ccccc1 (stereo not drawn) | inconclusive [inhibitor, single point] | – |
| COc1ccc2ccc3ccc(OC)c(OC(C)=O)c3c2c1 | inconclusive [inhibitor, partial curve] | – |
| COc1cccc(-c2ccc(SCC(=O)N3CCN(c4ccccc4)CC3)nn2)c1 | inconclusive [inhibitor, partial curve, poor fit] | – |
| CC(C)CN(C(=O)CN1CCN(c2ccc(F)cc2)CC1)c1c(N)n(CC(C)C)c(=O)[nH]c1=O | – | inactive: 20.3% |
| COc1ccc(O)c(-c2cn[nH]c2-c2cccs2)c1 | – | inactive: -2.74% |
| CCCCCCC[N+](CC)(CC)CCCCc1ccc(Cl)cc1 | inconclusive [inhibitor, partial curve] | – |
| CC1=C(C(=O)OCc2ccccc2)C(c2ccccc2Br)NC(=O)N1 (stereo not drawn) | active: 10 µM | – |
| Cc1cc(Cl)c2oc(C(=O)N(C)Cc3nccn3C)c(C)c2c1 | inconclusive [inhibitor, partial curve] | – |
| O=C(COC(=O)c1cc([N+](=O)[O-])ccc1N1CCOCC1)Nc1ncc(Cl)cc1Cl | inconclusive [inhibitor, full curve] | – |
| CCOC(=O)c1cnc2ccc(OC)cc2c1NCCc1ccc(OC)c(OC)c1 | active: 5.01 µM | – |
| O=C(CCc1ccc(O)c(O)c1)NNC(=S)Nc1ccc(Br)cc1Cl | inconclusive [inhibitor, single point] | – |
| CC(=O)N1CCOc2ccc(S(=O)(=O)N3CCC(C(=O)Nc4ccc(F)cc4)CC3)cc21 | inconclusive [inhibitor, single point] | – |
| COc1ccc(CN2CC(=O)N3[C@H]4c5ccccc5OC[C@@H]4[C@H](c4ccccc4)[C@]3(C)C2=O)cc1 | inconclusive [inhibitor, single point] | – |
| Cc1ccc(C(=O)CCNc2ccc(F)c(Cl)c2)o1 | active: 3.16 µM | – |
| COc1cc(C2=NOC(C(=O)NCc3cccs3)C2)cc(OC)c1OC (stereo not drawn) | – | inactive: -27.2% |
| CCC(=O)N(CC)c1nc(-c2cc(OC)ccc2OC)cs1 | inconclusive [inhibitor, partial curve] | – |
| O=C(Cn1ncc2c3ccccc3n(Cc3ccc(F)cc3)c2c1=O)N1CCC2(CC1)OCCO2 | inconclusive [inhibitor, partial curve] | – |
| CC(C)(C)Nc1nc(-c2ccc3c(c2)CCN3C(=O)C2CC2)cs1 | inconclusive [inhibitor, partial curve] | – |
| Cc1c(CN2CCN(CC(C)(C)C)C(CCO)C2)[nH]c2ccccc12 (stereo not drawn) | inconclusive [inhibitor, single point] | – |
| Cc1ccc(C)c(CN2C(=O)CSc3ccc(C(=O)NCC(C)CN4CCC(C)CC4)cc32)c1 (stereo not drawn) | inconclusive [inhibitor, single point] | – |
| COC(=O)[C@]1(C)CCC[C@@]2(C)C3CC[C@@]4(C)C[C@]3(CCC21)CC(=O)N4Cc1ccc(OC)cc1 (stereo partly drawn) | active: 12.6 µM | – |
| O=C1C=CC2(O[C@H](c3ccccc3)[C@@H](c3ccccc3)O2)[C@H](Sc2ccccc2O)C1 | inconclusive [inhibitor, full curve] | – |

| Compound | Potency | activity change, negative = inhibition |
| --- | --- | --- |
| Cc1ccc2nc(/C(C#N)=C/c3ccc(O)c(O)c3)[nH]c2c1 | inconclusive [inhibitor, full curve, poor fit] | – |
| CCOc1cccc(CN2CCN(c3cccc(C(F)(F)F)c3)CC2)c1O | – | inactive: -19.9% |
| O=C(CSc1nnc(-c2ccccc2F)o1)NC1CC1 | – | inactive: 3.37% |
| CCn1c(=O)c2cc(S(=O)(=O)NCc3ccccc3)ccc2n(CC)c1=O | inconclusive [inhibitor, single point] | – |
| Cc1cc(C)nc(-n2nc(C)cc2NC(=O)CN2CCc3ccccc3C2)n1 | – | inactive: -24.3% |
| COc1ccc(OC)c(-c2csc(NC(=O)Cn3[nH]c(=O)c4ccccc4c3=O)n2)c1 | inconclusive [inhibitor, single point] | – |
| COc1ccc(NC(=O)CSc2nc(N)c(-c3ccccc3)c(=O)[nH]2)cc1 | inconclusive [inhibitor, single point] | – |
| O=C(Nc1nc2c(s1)CCCC2)c1ccc(S(=O)(=O)N2CCCc3ccccc32)cc1 | inconclusive [inhibitor, partial curve] | – |
| Cc1ccc(/C=N/n2cnc3sc(C)c(C)c3c2=O)o1 | – | inactive: -6.97% |
| O=C(c1cc2cc(Cl)cc(Cl)c2oc1=O)N1CCOCC1 | inconclusive [inhibitor, single point] | – |
| COc1ccc(OCC(=O)N2CCN(c3nnc(-c4ccccc4)c4ccccc34)CC2)cc1 | active: 17.8 µM | – |
| COc1ccc(N2CCN(C(=O)CN3CCN(c4nc(-c5ccc(F)cc5)cs4)CC3)CC2)cc1 | inconclusive [inhibitor, full curve] | – |
| COc1ccc(Nc2nc(N3CCOCC3)nc(N3CCOCC3)n2)c(OC)c1 | inconclusive [inhibitor, partial curve] | – |
| CC(=O)Nc1cccc(NC(=O)CSc2nc(C3CC3)nc3ccccc23)c1 | inconclusive [inhibitor, single point] | – |
| O=C(N/N=C/c1c[nH]c2ccccc12)c1cc(-c2ccccc2)n[nH]1 | inconclusive [inhibitor, single point] | – |
| CCOc1ccc2[nH]c3c(NCCN(CC)CC)ncnc3c2c1 | – | inactive: -1.79% |
| Cc1nc2ccccc2nc1N/N=C/c1ccc(O)cc1O | inconclusive [inhibitor, single point] | – |
| CCCCN(C(=O)c1cc(=O)[nH]c2ccccc12)c1c(N)n(CCCC)c(=O)[nH]c1=O | – | inactive: 13.2% |
| CC[N+]1(C)CCC(=C2c3ccccc3CC(=O)c3sccc32)CC1 (stereo not drawn) | – | inactive: 1.38% |
| COc1ccc(CNC(=O)C2CCN(c3nc(OC)nc(OC)n3)CC2)cc1 | – | inactive: -11.4% |
| COc1ccc(NS(=O)(=O)c2ccc(OC)c(NC(=O)CNC(=O)c3ccc(OC)cc3)c2)cc1 | inconclusive [inhibitor, single point] | – |
